{"source": "the RNAGym collection of RNA variant scans (doi:10.1093/nar/gkz1192)", "parents": {"B1": {"name": "CPEB3 Ribozyme (parent)", "chain": "UAACAGGGGGCCACAGCAGAAGCGUUCACGUCGCAGCCCCUGUCAGAUUCUGGUGAAUCUGCGAAUUCUGCUGUAUAUCUC"}}, "note": "Read counts are not given, so values of variants with three or more changes are uncertain.", "data": [{"variants_of": "B1", "assay": "self-cleavage, relative activity (ratio to wild type); higher = more cleavage; in vitro, sequencing", "summary_of_the_method": "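CPEB3 self-cleaving ribozyme mutant libraries were made by rounds of error-prone PCR, barcoded, and transcribed in vitro with T7 RNA polymerase for 5 hours at 37°C. Cleavage occurred during transcription and a 15 min DNase I step before EDTA stop. RNAs were reverse transcribed with template switching and Illumina-sequenced, with DNA sequencing mapping barcodes to variants. Relative activity is the variant's cleaved/total read fraction divided by wild type's (minimum 5 reads), averaged across three batches.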", "values": [{"variant": "UAACAGGGGGCCACAUCAGAAGCGUUCACGCCGCAGCCCCCGUCAGAUUCUGGAGAAACUGCGAAUUCUGCCGUAUAUCUC", "self-cleavage": 0.1}, {"variant": "UAACAGGGGGCCACAUCAGAAGCGUUCACGUCGCAGCCCCAGUCAGAUUCUGGUGGAUCUGCGAAUUCUGCAGUAUAUCUC", "self-cleavage": 0.08}, {"variant": "UAACAGGGGGCCACAUCAGAAGCGUUCACGUCGCAGCCCCAGUCAGAUUCUGGAGAAUCUGCGAAUCCUGCUGUAUAUCUC", "self-cleavage": 0.06}, {"variant": "UAACAGGGGGCCACAUCAGAAGCGUUCACGUCGCAGCCCCUGUCAGAUCCUGGUGGACCUGCGGAUUCUGCUGUAUAUCUC", "self-cleavage": 0.1}, {"variant": "UAACAGGGGGCCACAUCAGAAGCGUUCACGUCGCAGCCCCUGUCAGAUUCAGGUGAAUCUGCGAAUUCCGCUGUAUAUCUC", "self-cleavage": 0.09}, {"variant": "UAACAGGGGGCCACAUCAGAAGCGUUCACGUCGCAGCCCCUGUCAGAUUCUGGAGAAUCUGCGAACUCUGCUGUAUAUCUC", "self-cleavage": 0.11}, {"variant": "UAACAGGGGGCCACAGACGAAGCGUUCACGACGCAGCCCCUGUCAGAUUCUGGUGAAUCUGCGAAUUCUGCUGUAUAUCUC", "self-cleavage": 0.09}, {"variant": "UAACAGGGGGCCACAGAGGAGGCGUUCACGUCGCAGCCCCUGUCAGGUUCUGGAGAAUCUGCGAAUUCUGCUGUAUACCUC", "self-cleavage": 0.16}, {"variant": "UAACAGGGGGCCACAGAUGAAGCGUGCACGUCGCAGCCCCUGCCAGAUCCUGGCGAAUCUGCGAAUUCUGCUGUAUAUCUC", "self-cleavage": 0.14}, {"variant": "UAACAGGGGGCCACAGAAGGAGCGUUCACGUCGCGGCCCCUGUCAGACUCUGGUGAGUCUGCGAAUUCCGCUGUAUAUCUC", "self-cleavage": 0.34}, {"variant": "UAACAGGGGGCCACAGAAGAGGCGUUCACGUCGCGGCCCCUGUCAGAUUCUGGAGAAUCUGCGAAUCCUGCUGUAUAUCUC", "self-cleavage": 0.05}, {"variant": "UAACAGGGGGCCACAGAAGAAGCGUUCGCGACGCAGCCCCCGUCAGAUUCUGGUGAAUCAGCGAAUUCUGCUGUAUAUCUC", "self-cleavage": 0.05}, {"variant": "UAACAGGGGGCCACAGAAGAAGCGUUCACGUCGCUGCCCCUGUCAGAUUCUGGUGGAUCUGCGAAUUCUGCUGUAUAUCUC", "self-cleavage": 0.17}, {"variant": "UAACAGGGGGCCACAGAAGAAGCGUUCACGUCGCAGCCCCUGUCGGAUUCUGGUGAAUCUGCGAAUUCUGCCGUAUAUCCC", "self-cleavage": 0.38}, {"variant": "UAACAGGGGGCCACAGAAGAAGCGUUCACGUCGCAGCCCCUGUCAGGUUCUGGCGAAUCUGCGAAUUCUGCUGUAUAUCUC", "self-cleavage": 0.07}, {"variant": "UAACAGGGGGCCACAGAAGAAGCGUUCACGUCGCAGCCCCUGUCAGAUUCUGGUGAAUCUGCGGAAUCUGCUGUAUAUCUC", "self-cleavage": 0.16}, {"variant": "UAACAGGGGGCCACAGAAGAAGUGCCCACGUCGCAGCCCCUGUCAGAUUCUGGUGAAUCUGCGAAUUCUGCUGUAUAUCUC", "self-cleavage": 0.16}, {"variant": "UAACAGGGGGCCACAGAAGAAGCGUUCACGUCGUAGCCCCUGUCAGGUUCCGGUGAAUCUGCGAAUUCUGCUGUAUAUCUC", "self-cleavage": 0.35}, {"variant": "UAACAGGGGGCCACAGAAUAAGCGUUCACGUCGCAGCCCCUGUCAGAUUCUGGUGAACCUGGGAAUUCUGCUGUAUAUCUC", "self-cleavage": 0.08}, {"variant": "UAACAGGGGGCCACAGAAGAAACGUUCACGUCGCAGCCCCUGUCAGAUUCUGGUGGAUCUGCGAAUUCCGCUGUGUACCUC", "self-cleavage": 0.06}, {"variant": "UAACAGGGGGCCACAGAAGAAGCAUUCACGUCGCUGCCCCUGUCAGGUUCUGGUGAAUCUGCGAAUUCUGCUGUAUAUCAC", "self-cleavage": 0.06}, {"variant": "UAACAGGGGGCCACAGAAGAAGCGUUCACCUCGCAGCCCCUGUCAGAUUCUGGUGGAUCUGCGAAUUCUGCUGUACAUCUC", "self-cleavage": 0.25}, {"variant": "UAACAGGGGGCCACAGAAGAAGCGUUCACGUCGCAGCCCCUGUCAGAUUCUGGUGAAUCUGCGAAUUCUACUGUAUACCUC", "self-cleavage": 0.34}, {"variant": "UAACAGGGGGCCACAGAAGAAGCGCUCACGUCGCAGCCCCUGUCAGGUUCUGGUGAUUCUGCGAAUUCUGCUGUAUAUCCC", "self-cleavage": 0.07}, {"variant": "UAACAGGGGGCCACAGAAGAAGCGCACACGUCGCAGCCCCUGUCAGAUUCUGGUGAAUCUGCGAAUUCUGCUGUAUAUCUC", "self-cleavage": 0.44}, {"variant": "UAACAGGGGGCCACAGAAGAAGCGUACACGUCGCAGCCCCUGUCGGAUUCUGGGGUAUCUGCGAAUUCUGCUGUGUAUCCC", "self-cleavage": 0.13}, {"variant": "UAACAGGGGGCCACAGAAGAAGCGUCCACGUCGCAGCCCUUGUCAGAUUCUGGUGAGUCUGCGAAUUCUGCUGUAUAUCUC", "self-cleavage": 0.26}, {"variant": "UAACAGGGGGCCACAGAAGAAGCGUUCACGACGCAGCCCCUGUCAGAUUCUGGUGAAUCUGCGAAUCCUGCUGUAUAUCUC", "self-cleavage": 0.16}, {"variant": "UAACAGGGGGCCACAGAAGAAGCGUUCACGUCGCAGCCCCAGUCAGACUCUGGUGAAUCUGCGAAUUCUGCUGUAAAUCUC", "self-cleavage": 0.07}, {"variant": "UAACAGGGGGCCACAGAAGAAGCGUUCACGUCGCAGCCCCCGUCAGACUCUGGUGAAUCUGCGUAUUCUGCUGUAUAUCCC", "self-cleavage": 0.11}, {"variant": "UAACAGGGGGCCACAGAAGAAGCGUUCACGUCGCAGCCCCUGCCAGAUCCUGGUGAAUCUGCGAAUUCUGCUGUAUAUCUC", "self-cleavage": 0.09}, {"variant": "UAACAGGGGGCCACAGAAGAAGCGUUCACGUCGCAGCCCCUGUCAGAUGCUGGUGGAUCGGCGAAUUCUGCUGUAUAUCUC", "self-cleavage": 0.17}, {"variant": "UAACAGGGGGCCACAGAAGAAGCGUUCACGUCGCAGCCCCUGUCAGAUUCCGGUGAAUCUGCGGAUUCUGCUGUAUAUCUC", "self-cleavage": 0.16}, {"variant": "UAACAGGGGGCCACAGAAGAAGCGUUCACGUCGCAGCCCCUGUCAGAUUCUGGUGAAUCUGCGAAUCCUGCUGUUUAUCUC", "self-cleavage": 0.07}]}]}
